Reference: the supplement of paper PMC8285479
Counter-ions that a name gives are not always drawn. ± gives the standard deviation of the averaged measurements. Whole data set: some 1,900 compounds, median “normalised cell viability (NPI; 0 = phenylarsine oxide control, 1 = DMSO control)” near 1, cut for the lowest 2% near 0.039. This is one part of the list.

Test system: NCI-H1944
Assay: normalised cell viability (NPI; 0 = phenylarsine oxide control, 1 = DMSO control) (fraction of DMSO control); NCI-H1944 is a non-small cell lung cancer line; higher = more viable cells (less compound toxicity)
Conditions: 6 days
[1] = glucocorticoid arm: hydrocortisone 2.75 uM co-treatment, compound 1 µM
[2] = glucocorticoid arm: hydrocortisone 2.75 uM co-treatment, compound 5 µM
[3] = glucocorticoid arm: hydrocortisone 2.75 uM pre-treated 2 days and continued, compound 1 µM
[4] = glucocorticoid arm: hydrocortisone 2.75 uM pre-treated 2 days and continued, compound 5 µM
[5] = glucocorticoid arm: vehicle, compound 1 µM
[6] = glucocorticoid arm: vehicle, compound 5 µM
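Also: CTB read-out in 384-well plates, mean of triplicate wells, normalised per plate against 1 µM phenylarsine oxide and 0.1% DMSO, compounds added 24 h after seeding.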

| Structure (SMILES) | normalised cell viability [1] | normalised cell viability [2] | normalised cell viability [3] | normalised cell viability [4] | normalised cell viability [5] | normalised cell viability [6] |
| --- | --- | --- | --- | --- | --- | --- |
| CCC(=O)NCC[C@@H]1CCc2ccc3c(c21)CCO3 [Ramelteon] | 1 ± 0.018 | 1.01 ± 0.011 | 1.006 ± 0.0069 | 1.01 ± 0.019 | 0.9943 ± 0.009 | 0.9933 ± 0.0061 |
| COc1cc(=O)n(C)c2c(OCC(O)C(C)(C)O)cccc12 (stereo unspecified) [Foliosidine] | 1.005 ± 0.0081 | 0.99 ± 0.01 | 0.9877 ± 0.0067 | 0.981 ± 0.012 | 0.998 ± 0.011 | 0.9963 ± 0.0021 |
| CN(C)CCC(c1ccc(Cl)cc1)c1ccccn1 (stereo unspecified) [Chlorpheniramine Maleate] | 1.02 ± 0.01 | 0.985 ± 0.034 | 1.03 ± 0.015 | 0.991 ± 0.026 | 0.9897 ± 0.0023 | 0.9807 ± 0.0047 |
| C[C@H](O)C(=O)C1=Nc2c(nc(N)[nH]c2=O)NC1 [Sepiapterin] | 0.998 ± 0.0035 | 1.01 ± 0.016 | 1.02 ± 0.015 | 0.999 ± 0.01 | 0.9937 ± 0.0055 | 0.9923 ± 0.0025 |
| COc1ccccc1N1CCN(CCN2C(=O)CC3(CCCC3)CC2=O)CC1 [BMY 7378 dihydrochloride] | 1 ± 0.013 | 1.01 ± 0.012 | 0.99 ± 0.014 | 1 ± 0.025 | 1.003 ± 0.0058 | 1.01 ± 0.011 |
| COc1ccccc1N1CCN(CCN2C(=O)CC3(CCCC3)CC2=O)CC1 | 1.02 ± 0.015 | 1.01 ± 0.034 | 1.027 ± 0.0058 | 1.01 ± 0.013 | 1.007 ± 0.0058 | 1.003 ± 0.0058 |
| CN(C)c1nc(N)c(C(=O)NC(=N)N)nc1Cl [5-(N,N-Dimethyl)amiloride hydrochloride] | 0.995 ± 0.007 | 1.003 ± 0.0058 | 0.997 ± 0.0027 | 1.01 | 0.981 ± 0.0089 | 0.977 ± 0.0079 |
| CC(C)C[C@H](NC(=O)CNC(=O)c1cc(Cl)ccc1Cl)B1OC(=O)CC(CC(=O)O)(C(=O)O)O1 (stereo partly specified) | 0.98 ± 0.014 | 0.835 ± 0.018 | 1.047 ± 0.0058 | 1.04 ± 0.015 | 0.263 ± 0.024 | 0.0378 ± 0.0053 |
| Cc1nc2c(OCc3ccccc3)cccn2c1CC#N | 1.023 ± 0.0058 | 1.02 ± 0.01 | 1.013 ± 0.0058 | 1.02 ± 0.015 | 1.003 ± 0.0058 | 1.01 |
| CCOC(=O)C1=C(C)NC(C)=C(C(=O)OC)C1c1cccc([N+](=O)[O-])c1 (stereo unspecified) [Nitrendipine] | 1.013 ± 0.0058 | 1.03 ± 0.025 | 1.01 | 1.02 ± 0.095 | 0.9927 ± 0.0075 | 1 ± 0.014 |
| CNC(=O)c1ccccc1Sc1ccc2c(/C=C/c3ccccn3)n[nH]c2c1 | 1.03 ± 0.01 | 0.932 ± 0.017 | 1.007 ± 0.0058 | 0.997 ± 0.022 | 0.9967 ± 0.0021 | 0.59 ± 0.021 |
| CNC(=O)c1ccccc1Sc1ccc2c(/C=C/c3ccccn3)n[nH]c2c1 [Axitinib] | 1.02 ± 0.015 | 1.06 ± 0.01 | 1.04 ± 0.011 | 1.033 ± 0.0058 | 1 ± 0.0095 | 0.953 ± 0.026 |
| CC(CN1c2ccccc2Sc2ccccc21)N(C)C (stereo unspecified) [Promethazine hydrochloride] | 0.999 ± 0.001 | 0.969 ± 0.0072 | 1.023 ± 0.0058 | 0.901 ± 0.25 | 1.006 ± 0.0075 | 1.01 ± 0.01 |
| S=C=Nc1cccc(NC(=S)NCCCCNC(=S)Nc2cccc(N=C=S)c2)c1 | 1.04 ± 0.04 | 1.05 ± 0.015 | 1.02 ± 0.033 | 1.04 ± 0.032 | 1.017 ± 0.0058 | 1.003 ± 0.0058 |
| CCOc1cc(N2CCC(O)CC2)ccc1Nc1ncc2c(n1)N(C)c1ccccc1C(=O)N2C | 1.017 ± 0.0058 | 1.07 ± 0.029 | 1.02 ± 0.011 | 1.03 ± 0.015 | 1.013 ± 0.0058 | 1.03 ± 0.017 |
| O=C(c1ccc(OCCN2CCCCC2)cc1)c1c(-c2ccc(O)cc2)sc2cc(O)ccc12 [Raloxifene hydrochloride] | 0.9787 ± 0.0031 | 1.01 ± 0.017 | 1.02 ± 0.023 | 1.08 ± 0.01 | 0.984 ± 0.0046 | 0.999 ± 0.0095 |
| O=C(c1ccc(OCCN2CCCCC2)cc1)c1c(-c2ccc(O)cc2)sc2cc(O)ccc12 [Raloxifene HCl; Raloxifene hydrochloride] | 1.01 ± 0.021 | 0.9993 ± 0.0093 | 1.023 ± 0.0058 | 1.04 ± 0.01 | 1.007 ± 0.0058 | 1.007 ± 0.0058 |
| O=C(c1ccc(OCCN2CCCCC2)cc1)c1c(-c2ccc(O)cc2)sc2cc(O)ccc12 [Raloxifene HCl] | 1 ± 0.015 | 1.043 ± 0.0058 | 1.01 ± 0.01 | 1.06 ± 0.01 | 0.999 ± 0.01 | 0.943 ± 0.0079 |
| CCc1c(C(=O)NCCc2ccc(N3CCCCC3)cc2)[nH]c2ccc(Cl)cc12 | 1.01 ± 0.018 | 0.993 ± 0.021 | 1.027 ± 0.0058 | 0.999 ± 0.011 | 1 ± 0.0095 | 0.982 ± 0.012 |
| O=C(Nc1cccc(Cl)c1)Nc1ncc(CCNc2ncnc3ccsc23)s1 | 0.905 ± 0.012 | 0.779 ± 0.041 | 0.93 ± 0.017 | 0.897 ± 0.035 | 0.686 ± 0.013 | 0.554 ± 0.041 |
| O=C(Nc1cccc(Cl)c1)Nc1ncc(CCNc2ncnc3ccsc23)s1 [SNS-314 Mesylate] | 0.897 ± 0.015 | 0.837 ± 0.0056 | 0.94 ± 0.013 | 0.93033 ± 0.00058 | 0.723 ± 0.032 | 0.505 ± 0.044 |
| Nc1ncnc2c1c(-c1cccc(OCc3ccccc3)c1)cn2C1CC(CN2CCCC2)C1 (stereo unspecified) | 0.584 ± 0.055 | 0.445 ± 0.037 | 0.546 ± 0.029 | 0.565 ± 0.051 | 0.978 ± 0.007 | 0.894 ± 0.029 |
| CNC(=O)CN1CCC(Oc2cc3c(Nc4cccc(Cl)c4F)ncnc3cc2OC)CC1 | 0.814 ± 0.021 | 0.714 ± 0.072 | 0.867 ± 0.012 | 0.789 ± 0.066 | 0.832 ± 0.0096 | 0.703 ± 0.052 |
| Nc1nc(N)nc(-c2cc(Cl)ccc2Cl)n1 [Irsogladine] | 0.999 ± 0.018 | 0.989 ± 0.0098 | 1.01 ± 0.011 | 0.993 ± 0.018 | 0.991 ± 0.0079 | 0.999 ± 0.0017 |
| CCN1CCCC1CNC(=O)c1cc(S(=O)(=O)CC)c(N)cc1OC (stereo unspecified) [Amisulpride] | 1.002 ± 0.007 | 0.974 ± 0.028 | 1.02 ± 0.027 | 1 ± 0.018 | 1.01 ± 0.01 | 1.017 ± 0.0058 |
| CCCS(=O)(=O)Nc1ccc(F)c(C(=O)c2c[nH]c3ncc(Cl)cc23)c1F | 1.06 ± 0.01 | 1.11 ± 0.023 | 1.06 | 1.09 ± 0.015 | 1.02 ± 0.01 | 1.03 ± 0.01 |
